{"source": "the supplement of paper PMC8728848", "binders": {"B1": {"name": "Pbx1 (Cryptococcus neoformans) (protein)", "chain": "ATTKCLVSGDQDSINNALALGGEGTTVTLCPGSVHRLNSSIIFTAPSQTLTTLGNPKDRNRAMLVVDGEDLACAIRADCKQCSHAMIRSLVIDGNRPQLLRIPKGDALIEVGNAESQTVRDCKLYEPRGWSALHFREGDERQCRFGHIVDNEIGPCGEEWDDEYDSMDETKPLWGNPRADGISLACKDSIVERNVVYDATDGAIVLFGSAGSTVKNNHVYARTRVILGGINLVDYEPWDGDYTNVKVHHNHLYALGRYFKVGIVIGPASWSDDTESVVHSASVTDNEFSGGYWGYGIVVASAKNFEVLRNKVIWDGEQGVARFSGVPGSRCPKAPENGKPTAFLINRGSAKGIFQDDFVNGEVQHIICLNPDQDPPYKPWRFRDSPEAIAAKQAENPTANSAFDSRIAEALVSYQMSLLNSMDAMTQKVEHLTNPIVDDALPFVHEHERAEADKKARQEASRKEKESGNKDVDMLNVKVEELEKSGRRLKKALDGLKSDFEGLSGRLKKSADENKPIIETIFVTSQNLLLGATSQQN"}}, "experiment_in_all_cases": "glycan array binding signal (z-score within array); higher = stronger binding", "conditions_in_all_cases": "glycan notation: IUPAC condensed, linker removed", "key": {"Gal(b1-3)Gal": {"target": "Gal(b1-3)Gal", "how_it_was_run": "(§1)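 Arrays were curated from the Consortium for Functional Glycomics database, 3228 in total, and kept only where the protein sequence was available. Binding is expressed as a within-array Z-score. This score was averaged across arrays of the same protein sequence at different concentrations or buffers and across linkers, and negative values can be read as non-binding.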"}, "Gal(b1-3)Gal(b1-4)GlcNAc": {"target": "Gal(b1-3)Gal(b1-4)GlcNAc", "how_it_was_run": "as §1"}, "Gal(b1-3)GalNAc": {"target": "Gal(b1-3)GalNAc", "how_it_was_run": "as §1"}, "[1]": {"target": "Gal(b1-3)GalNAc(a1-3)[Fuc(a1-2)]Gal(b1-4)Glc", "how_it_was_run": "as §1"}, "[2]": {"target": "Gal(b1-3)GalNAc(a1-3)[Fuc(a1-2)]Gal(b1-4)GlcNAc", "how_it_was_run": "as §1"}, "Gal(b1-3)GalNAc(b1-3)Gal": {"target": "Gal(b1-3)GalNAc(b1-3)Gal", "how_it_was_run": "as §1"}, "[3]": {"target": "Gal(b1-3)GalNAc(b1-3)Gal(a1-4)Gal(b1-4)Glc", "how_it_was_run": "as §1"}, "[4]": {"target": "Gal(b1-3)GalNAc(b1-4)Gal(b1-4)Glc", "how_it_was_run": "as §1"}, "[5]": {"target": "Gal(b1-3)GalNAc(b1-4)[Neu5Ac(a2-3)]Gal(b1-4)Glc", "how_it_was_run": "as §1"}, "Gal(b1-3)GlcNAc": {"target": "Gal(b1-3)GlcNAc", "how_it_was_run": "as §1"}, "[6]": {"target": "Gal(b1-3)GlcNAc(a1-3)Gal(b1-4)GlcNAc", "how_it_was_run": "as §1"}, "[7]": {"target": "Gal(b1-3)GlcNAc(a1-6)Gal(b1-4)GlcNAc", "how_it_was_run": "as §1"}, "Gal(b1-3)GlcNAc(b1-2)Man": {"target": "Gal(b1-3)GlcNAc(b1-2)Man", "how_it_was_run": "as §1"}, "[8]": {"target": "Gal(b1-3)GlcNAc(b1-2)Man(a1-3)[Gal(b1-3)GlcNAc(b1-2)Man(a1-6)]Man(b1-4)GlcNAc(b1-4)GlcNAc", "how_it_was_run": "as §1"}, "[9]": {"target": "Gal(b1-3)GlcNAc(b1-2)Man(a1-3)[Gal(b1-3)GlcNAc(b1-2)Man(a1-6)]Man(b1-4)GlcNAc(b1-4)[Fuc(a1-6)]GlcNAc", "how_it_was_run": "as §1"}, "[10]": {"target": "Gal(b1-3)GlcNAc(b1-2)Man(a1-3)[GlcNAc(b1-4)][Gal(b1-3)GlcNAc(b1-2)Man(a1-6)]Man(b1-4)GlcNAc(b1-4)GlcNAc", "how_it_was_run": "as §1"}, "[11]": {"target": "Gal(b1-3)GlcNAc(b1-2)[Gal(b1-3)GlcNAc(b1-6)]Man(a1-6)[Gal(b1-3)GlcNAc(b1-2)Man(a1-3)]Man(b1-4)GlcNAc(b1-4)GlcNAc", "how_it_was_run": "as §1"}, "[12]": {"target": "Gal(b1-3)GlcNAc(b1-3)Gal(b1-3)GlcNAc", "how_it_was_run": "as §1"}, "[13]": {"target": "Gal(b1-3)GlcNAc(b1-3)Gal(b1-4)Glc", "how_it_was_run": "as §1"}, "[14]": {"target": "Gal(b1-3)GlcNAc(b1-3)Gal(b1-4)GlcNAc", "how_it_was_run": "as §1"}, "[15]": {"target": "Gal(b1-3)GlcNAc(b1-3)Gal(b1-4)GlcNAc(b1-2)Man(a1-3)[Gal(b1-3)GlcNAc(b1-3)Gal(b1-4)GlcNAc(b1-2)Man(a1-6)]Man(b1-4)GlcNAc(b1-4)GlcNAc", "how_it_was_run": "as §1"}, "[16]": {"target": "Gal(b1-3)GlcNAc(b1-3)Gal(b1-4)GlcNAc(b1-2)[Gal(b1-3)GlcNAc(b1-3)Gal(b1-4)GlcNAc(b1-6)]Man(a1-6)[Gal(b1-3)GlcNAc(b1-3)Gal(b1-4)GlcNAc(b1-2)Man(a1-3)]Man(b1-4)GlcNAc(b1-4)[Fuc(a1-6)]GlcNAc", "how_it_was_run": "as §1"}, "[17]": {"target": "Gal(b1-3)GlcNAc(b1-3)Gal(b1-4)GlcNAc(b1-3)Gal(b1-4)GlcNAc(b1-2)[Gal(b1-3)GlcNAc(b1-3)Gal(b1-4)GlcNAc(b1-3)Gal(b1-4)GlcNAc(b1-6)]Man(a1-6)[Gal(b1-3)GlcNAc(b1-3)Gal(b1-4)GlcNAc(b1-3)Gal(b1-4)GlcNAc(b1-2)Man(a1-3)]Man(b1-4)GlcNAc(b1-4)[Fuc(a1-6)]GlcNAc", "how_it_was_run": "as §1"}, "[18]": {"target": "Gal(b1-3)GlcNAc(b1-3)Gal(b1-4)GlcNAc(b1-6)[Gal(b1-3)GlcNAc(b1-3)]Gal(b1-4)Glc", "how_it_was_run": "as §1"}, "[19]": {"target": "Gal(b1-3)GlcNAc(b1-3)Gal(b1-4)[Fuc(a1-3)]GlcNAc", "how_it_was_run": "as §1"}, "[20]": {"target": "Gal(b1-3)GlcNAc(b1-3)Gal(b1-4)[Fuc(a1-3)]GlcNAc(b1-6)[Gal(b1-3)GlcNAc(b1-3)]Gal(b1-4)Glc", "how_it_was_run": "as §1"}, "[21]": {"target": "Gal(b1-3)GlcNAc(b1-3)GalNAc", "how_it_was_run": "as §1"}, "[22]": {"target": "Gal(b1-3)GlcNAc(b1-6)Gal(b1-4)GlcNAc", "how_it_was_run": "as §1"}, "[23]": {"target": "Gal(b1-3)GlcNAc(b1-6)GalNAc", "how_it_was_run": "as §1"}, "[24]": {"target": "Gal(b1-3)GlcNAc(b1-6)[Gal(b1-3)]GalNAc", "how_it_was_run": "as §1"}, "Gal(b1-3)GlcNAc6S": {"target": "Gal(b1-3)GlcNAc6S", "how_it_was_run": "as §1"}, "[25]": {"target": "Gal(b1-3)[Fuc(a1-4)]GlcNAc", "how_it_was_run": "as §1"}, "[26]": {"target": "Gal(b1-3)[Fuc(a1-4)]GlcNAc(b1-2)Man", "how_it_was_run": "as §1"}, "[27]": {"target": "Gal(b1-3)[Fuc(a1-4)]GlcNAc(b1-2)Man(a1-3)[Gal(b1-3)[Fuc(a1-4)]GlcNAc(b1-2)Man(a1-6)]Man(b1-4)GlcNAc(b1-4)[Fuc(a1-6)]GlcNAc", "how_it_was_run": "as §1"}, "[28]": {"target": "Gal(b1-3)[Fuc(a1-4)]GlcNAc(b1-3)Gal(b1-3)[Fuc(a1-4)]GlcNAc", "how_it_was_run": "as §1"}, "[29]": {"target": "Gal(b1-3)[Fuc(a1-4)]GlcNAc(b1-3)Gal(b1-4)[Fuc(a1-3)]GlcNAc", "how_it_was_run": "as §1"}, "[30]": {"target": "Gal(b1-3)[Fuc(a1-4)]GlcNAc(b1-6)GalNAc", "how_it_was_run": "as §1"}}, "note": "Some of the results follow."}
{"binder": "B1", "values": [{"measurement": "glycan array binding signal (z-score)", "setting": "Gal(b1-3)Gal", "result": -0.01}, {"measurement": "glycan array binding signal (z-score)", "setting": "Gal(b1-3)Gal(b1-4)GlcNAc", "result": -0.349}, {"measurement": "glycan array binding signal (z-score)", "setting": "Gal(b1-3)GalNAc", "result": -0.314}, {"measurement": "glycan array binding signal (z-score)", "setting": "[1]", "result": -0.364}, {"measurement": "glycan array binding signal (z-score)", "setting": "[2]", "result": -0.408}, {"measurement": "glycan array binding signal (z-score)", "setting": "Gal(b1-3)GalNAc(b1-3)Gal", "result": -0.388}, {"measurement": "glycan array binding signal (z-score)", "setting": "[3]", "result": -0.278}, {"measurement": "glycan array binding signal (z-score)", "setting": "[4]", "result": 0.348}, {"measurement": "glycan array binding signal (z-score)", "setting": "[5]", "result": -0.155}, {"measurement": "glycan array binding signal (z-score)", "setting": "Gal(b1-3)GlcNAc", "result": -0.546}, {"measurement": "glycan array binding signal (z-score)", "setting": "[6]", "result": -0.304}, {"measurement": "glycan array binding signal (z-score)", "setting": "[7]", "result": -0.457}, {"measurement": "glycan array binding signal (z-score)", "setting": "Gal(b1-3)GlcNAc(b1-2)Man", "result": 0.676}, {"measurement": "glycan array binding signal (z-score)", "setting": "[8]", "result": -0.382}, {"measurement": "glycan array binding signal (z-score)", "setting": "[9]", "result": 1.49}, {"measurement": "glycan array binding signal (z-score)", "setting": "[10]", "result": 0.415}, {"measurement": "glycan array binding signal (z-score)", "setting": "[11]", "result": 0.208}, {"measurement": "glycan array binding signal (z-score)", "setting": "[12]", "result": -0.112}, {"measurement": "glycan array binding signal (z-score)", "setting": "[13]", "result": -0.533}, {"measurement": "glycan array binding signal (z-score)", "setting": "[14]", "result": 0.572}, {"measurement": "glycan array binding signal (z-score)", "setting": "[15]", "result": 0.187}, {"measurement": "glycan array binding signal (z-score)", "setting": "[16]", "result": 1.06}, {"measurement": "glycan array binding signal (z-score)", "setting": "[17]", "result": 15}, {"measurement": "glycan array binding signal (z-score)", "setting": "[18]", "result": -0.554}, {"measurement": "glycan array binding signal (z-score)", "setting": "[19]", "result": 0.149}, {"measurement": "glycan array binding signal (z-score)", "setting": "[20]", "result": -0.611}, {"measurement": "glycan array binding signal (z-score)", "setting": "[21]", "result": -0.34}, {"measurement": "glycan array binding signal (z-score)", "setting": "[22]", "result": -0.652}, {"measurement": "glycan array binding signal (z-score)", "setting": "[23]", "result": 0.171}, {"measurement": "glycan array binding signal (z-score)", "setting": "[24]", "result": -0.269}, {"measurement": "glycan array binding signal (z-score)", "setting": "Gal(b1-3)GlcNAc6S", "result": -0.086}, {"measurement": "glycan array binding signal (z-score)", "setting": "[25]", "result": 0.151}, {"measurement": "glycan array binding signal (z-score)", "setting": "[26]", "result": 0.029}, {"measurement": "glycan array binding signal (z-score)", "setting": "[27]", "result": 0.053}, {"measurement": "glycan array binding signal (z-score)", "setting": "[28]", "result": -0.758}, {"measurement": "glycan array binding signal (z-score)", "setting": "[29]", "result": -0.146}, {"measurement": "glycan array binding signal (z-score)", "setting": "[30]", "result": 0.227}]}
